According to the supplement of paper PMC8728848:
This is one part of the list.

Experiments:
Assay in all cases: glycan array binding signal (z-score within array); higher = stronger binding
Settings in all cases: glycan notation: IUPAC condensed, linker removed
[1] = target: Fuc(a1-2)Gal6S(b1-3)GlcNAc
Outline: (§1)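 Glycan array binding is given as a within-array Z-score, which can be read as non-binding when negative. The arrays, 3228 of them, came from the Consortium for Functional Glycomics database and were retained only where the protein sequence was available. Z-scores were averaged across arrays of the same protein sequence at different concentrations or buffers and across linkers.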

[2] = target: Fuc(a1-2)Gal6S(b1-3)GlcNAc6S
Outline: as §1

Fuc(a1-2)Gal6S(b1-4)Glc = target: Fuc(a1-2)Gal6S(b1-4)Glc
Outline: as §1

[3] = target: Fuc(a1-2)Gal6S(b1-4)Glc6S
Outline: as §1

Fuc(a1-2)[Gal(a1-3)]Gal = target: Fuc(a1-2)[Gal(a1-3)]Gal
Outline: as §1

[4] = target: Fuc(a1-2)[Gal(a1-3)]Gal(b1-3)GalNAc
Outline: as §1

[5] = target: Fuc(a1-2)[Gal(a1-3)]Gal(b1-3)GalNAc(b1-3)Gal(a1-4)Gal(b1-4)Glc
Outline: as §1

[6] = target: Fuc(a1-2)[Gal(a1-3)]Gal(b1-3)GlcNAc
Outline: as §1

[7] = target: Fuc(a1-2)[Gal(a1-3)]Gal(b1-3)GlcNAc(b1-2)Man(a1-3)[Fuc(a1-2)[Gal(a1-3)]Gal(b1-3)GlcNAc(b1-2)Man(a1-6)]Man(b1-4)GlcNAc(b1-4)GlcNAc
Outline: as §1

[8] = target: Fuc(a1-2)[Gal(a1-3)]Gal(b1-3)GlcNAc(b1-2)Man(a1-3)[Fuc(a1-2)[Gal(a1-3)]Gal(b1-3)GlcNAc(b1-2)Man(a1-6)]Man(b1-4)GlcNAc(b1-4)[Fuc(a1-6)]GlcNAc
Outline: as §1

[9] = target: Fuc(a1-2)[Gal(a1-3)]Gal(b1-3)GlcNAc(b1-3)GalNAc
Outline: as §1

[10] = target: Fuc(a1-2)[Gal(a1-3)]Gal(b1-3)GlcNAc(b1-6)GalNAc
Outline: as §1

[11] = target: Fuc(a1-2)[Gal(a1-3)]Gal(b1-4)Glc
Outline: as §1

[12] = target: Fuc(a1-2)[Gal(a1-3)]Gal(b1-4)GlcNAc
Outline: as §1

[13] = target: Fuc(a1-2)[Gal(a1-3)]Gal(b1-4)GlcNAc(b1-2)Man
Outline: as §1

[14] = target: Fuc(a1-2)[Gal(a1-3)]Gal(b1-4)GlcNAc(b1-2)Man(a1-3)[Fuc(a1-2)[Gal(a1-3)]Gal(b1-4)GlcNAc(b1-2)Man(a1-6)]Man(b1-4)GlcNAc(b1-4)GlcNAc
Outline: as §1

[15] = target: Fuc(a1-2)[Gal(a1-3)]Gal(b1-4)GlcNAc(b1-2)Man(a1-3)[Fuc(a1-2)[Gal(a1-3)]Gal(b1-4)GlcNAc(b1-2)Man(a1-6)]Man(b1-4)GlcNAc(b1-4)[Fuc(a1-6)]GlcNAc
Outline: as §1

[16] = target: Fuc(a1-2)[Gal(a1-3)]Gal(b1-4)GlcNAc(b1-3)GalNAc
Outline: as §1

[17] = target: Fuc(a1-2)[Gal(a1-3)]Gal(b1-4)GlcNAc(b1-6)GalNAc
Outline: as §1

[18] = target: Fuc(a1-2)[Gal(a1-3)]Gal(b1-4)[Fuc(a1-3)]Glc
Outline: as §1

[19] = target: Fuc(a1-2)[Gal(a1-3)]Gal(b1-4)[Fuc(a1-3)]GlcNAc
Outline: as §1

[20] = target: Fuc(a1-2)[Gal(a1-3)]Gal(b1-4)[Fuc(a1-3)]GlcNAc(b1-3)GalNAc
Outline: as §1

[21] = target: Fuc(a1-2)[Gal(a1-4)]Gal(b1-4)GlcNAc
Outline: as §1

[22] = target: Fuc(a1-2)[GalNAc(a1-3)]Gal
Outline: as §1

[23] = target: Fuc(a1-2)[GalNAc(a1-3)]Gal(b1-3)GalNAc(a1-3)[Fuc(a1-2)]Gal(b1-4)GlcNAc
Outline: as §1

[24] = target: Fuc(a1-2)[GalNAc(a1-3)]Gal(b1-3)GalNAc(b1-3)Gal(a1-4)Gal(b1-4)Glc
Outline: as §1

[25] = target: Fuc(a1-2)[GalNAc(a1-3)]Gal(b1-3)GlcNAc
Outline: as §1

[26] = target: Fuc(a1-2)[GalNAc(a1-3)]Gal(b1-3)GlcNAc(b1-2)Man(a1-3)[Fuc(a1-2)[GalNAc(a1-3)]Gal(b1-3)GlcNAc(b1-2)Man(a1-6)]Man(b1-4)GlcNAc(b1-4)GlcNAc
Outline: as §1

[27] = target: Fuc(a1-2)[GalNAc(a1-3)]Gal(b1-3)GlcNAc(b1-2)Man(a1-3)[Fuc(a1-2)[GalNAc(a1-3)]Gal(b1-3)GlcNAc(b1-2)Man(a1-6)]Man(b1-4)GlcNAc(b1-4)[Fuc(a1-6)]GlcNAc
Outline: as §1

[28] = target: Fuc(a1-2)[GalNAc(a1-3)]Gal(b1-3)GlcNAc(b1-3)GalNAc
Outline: as §1

[29] = target: Fuc(a1-2)[GalNAc(a1-3)]Gal(b1-3)GlcNAc(b1-6)GalNAc
Outline: as §1

[30] = target: Fuc(a1-2)[GalNAc(a1-3)]Gal(b1-4)Glc
Outline: as §1

[31] = target: Fuc(a1-2)[GalNAc(a1-3)]Gal(b1-4)GlcNAc
Outline: as §1

[32] = target: Fuc(a1-2)[GalNAc(a1-3)]Gal(b1-4)GlcNAc(b1-2)Man
Outline: as §1

[33] = target: Fuc(a1-2)[GalNAc(a1-3)]Gal(b1-4)GlcNAc(b1-2)Man(a1-3)[Fuc(a1-2)[GalNAc(a1-3)]Gal(b1-4)GlcNAc(b1-2)Man(a1-6)]Man(b1-4)GlcNAc(b1-4)GlcNAc
Outline: as §1

[34] = target: Fuc(a1-2)[GalNAc(a1-3)]Gal(b1-4)GlcNAc(b1-2)Man(a1-3)[Fuc(a1-2)[GalNAc(a1-3)]Gal(b1-4)GlcNAc(b1-2)Man(a1-6)]Man(b1-4)GlcNAc(b1-4)[Fuc(a1-6)]GlcNAc
Outline: as §1

[35] = target: Fuc(a1-2)[GalNAc(a1-3)]Gal(b1-4)GlcNAc(b1-3)Gal(b1-4)GlcNAc
Outline: as §1

[36] = target: Fuc(a1-2)[GalNAc(a1-3)]Gal(b1-4)GlcNAc(b1-3)Gal(b1-4)GlcNAc(b1-3)Gal(b1-4)GlcNAc
Outline: as §1

[37] = target: Fuc(a1-2)[GalNAc(a1-3)]Gal(b1-4)GlcNAc(b1-3)GalNAc
Outline: as §1

[38] = target: Fuc(a1-2)[GalNAc(a1-3)]Gal(b1-4)GlcNAc(b1-3)[Fuc(a1-2)[GalNAc(a1-3)]Gal(b1-4)GlcNAc(b1-6)]GalNAc
Outline: as §1

[39] = target: Fuc(a1-2)[GalNAc(a1-3)]Gal(b1-4)GlcNAc(b1-6)GalNAc
Outline: as §1

[40] = target: Fuc(a1-2)[GalNAc(a1-3)]Gal(b1-4)[Fuc(a1-3)]GlcNAc
Outline: as §1

[41] = target: Fuc(a1-2)[GalNAc(a1-3)]Gal(b1-4)[Fuc(a1-3)]GlcNAc(b1-3)GalNAc
Outline: as §1

[42] = target: Fuc(a1-2)[GalNAc(a1-4)]Gal(b1-4)GlcNAc
Outline: as §1

[43] = target: Fuc(a1-2)[GalNAc(b1-3)]Gal
Outline: as §1

B1: ECL (Erythrina cristagalli), Q6YD91 (protein)
chain: VETISFSFSEFEPGNNDLTLQGAAIITQSGVLQLTKINQNGMPAWDSTGRTLYTKPVHIWDMTTGTVASFETRFSFSIEQPYTRPLPADGLVFFMGPTKSKPAQGYGYLGVFNNSKQDNSYQTLAVEFDTFSNPWDPPQVPHIGIDVNSIRSIKTQPFQLDNGQVANVVIKYDASSKILLAVLVYPSSGAIYTIAEIVDVKQVLPEWVDVGLSGATGAQRDAAETHDVYSWSFHASLPETND
[1]
  glycan array binding signal (z-score): -0.436
[2]
  glycan array binding signal (z-score): -0.394
Fuc(a1-2)Gal6S(b1-4)Glc
  glycan array binding signal (z-score): -0.054
[3]
  glycan array binding signal (z-score): -0.077
Fuc(a1-2)[Gal(a1-3)]Gal
  glycan array binding signal (z-score): -0.143
[4]
  glycan array binding signal (z-score): -0.143
[5]
  glycan array binding signal (z-score): -0.247
[6]
  glycan array binding signal (z-score): -0.196
[7]
  glycan array binding signal (z-score): -0.173
[8]
  glycan array binding signal (z-score): -0.182
[9]
  glycan array binding signal (z-score): -0.393
[10]
  glycan array binding signal (z-score): -0.206
[11]
  glycan array binding signal (z-score): -0.141
[12]
  glycan array binding signal (z-score): -0.306
[13]
  glycan array binding signal (z-score): -0.158
[14]
  glycan array binding signal (z-score): -0.175
[15]
  glycan array binding signal (z-score): -0.114
[16]
  glycan array binding signal (z-score): -0.135
[17]
  glycan array binding signal (z-score): 0.01
[18]
  glycan array binding signal (z-score): -0.279
[19]
  glycan array binding signal (z-score): -0.134
[20]
  glycan array binding signal (z-score): 1.39
[21]
  glycan array binding signal (z-score): -0.029
[22]
  glycan array binding signal (z-score): -0.343
[23]
  glycan array binding signal (z-score): -0.127
[24]
  glycan array binding signal (z-score): -0.336
[25]
  glycan array binding signal (z-score): -0.253
[26]
  glycan array binding signal (z-score): -0.293
[27]
  glycan array binding signal (z-score): -0.289
[28]
  glycan array binding signal (z-score): 0.102
[29]
  glycan array binding signal (z-score): -0.435
[30]
  glycan array binding signal (z-score): -0.283
[31]
  glycan array binding signal (z-score): -0.363
[32]
  glycan array binding signal (z-score): -0.227
[33]
  glycan array binding signal (z-score): -0.306
[34]
  glycan array binding signal (z-score): -0.274
[35]
  glycan array binding signal (z-score): -0.259
[36]
  glycan array binding signal (z-score): 0.176
[37]
  glycan array binding signal (z-score): -0.17
[38]
  glycan array binding signal (z-score): -0.356
[39]
  glycan array binding signal (z-score): -0.404
[40]
  glycan array binding signal (z-score): -0.1
[41]
  glycan array binding signal (z-score): 0.775
[42]
  glycan array binding signal (z-score): -0.259
[43]
  glycan array binding signal (z-score): -0.064
